# Test results from PMC12820563.
# The list shows a part of the results. The list includes weakly bound sequences.
# Target: T1, MBP-FoxP3dN (UniProt Q99JB6)
# T1 sequence: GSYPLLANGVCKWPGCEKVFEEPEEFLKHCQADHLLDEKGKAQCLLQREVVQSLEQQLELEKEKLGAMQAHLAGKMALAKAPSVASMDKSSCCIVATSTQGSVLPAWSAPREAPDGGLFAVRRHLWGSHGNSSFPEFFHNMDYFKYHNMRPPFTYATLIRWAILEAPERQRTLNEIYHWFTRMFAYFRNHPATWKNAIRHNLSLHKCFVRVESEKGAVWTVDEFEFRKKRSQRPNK
# Experiment: PD-seq (MBP pull-down with sequencing)
# Settings: 20 mM Tris-HCl pH 7.5, 100 mM NaCl, 1.5 mM MgCl2, 0.4 uM protein, 0.1 uM dsDNA library, 30 min, room temperature, amylose pull-down; high values mean tight binding; double strand, one strand shown
row,Sequence,binding signal (RPM ratio (pull-down/input))
1,GATGATTGTTCTCCCAGCTGATGAATTCCGACGGTCGAGTAAACAAATTTTCCTAATCTTTCTGTTCAAGCGCCATCTAC,0.238
2,GATGATTGTTCTCCCAGCTGATGAATTAATCCCATCGAGTAAACAAATTTTCCTAATCTTTCTGTTCAAGCGCCATCTAC,0.282
3,GATGATTGTTCTCCCAGCTGATGAATTGTCTGCATCGAGTAAACAAATTTTCCTAATCTTTCTGTTCAAGCGCCATCTAC,1.06
4,GATGATTGTTCTCCCAGCTGATGAATTGAGTGTATCGAGTAAACAAATTTTCCTAATCTTTCTGTTCAAGCGCCATCTAC,1.89
5,GATGATTGTTCTCCCAGCTGATGAATTCGCCGGTTCGAGTAAACAAATTTTCCTAATCTTTCTGTTCAAGCGCCATCTAC,0.297
6,GATGATTGTTCTCCCAGCTGATGAATTTGTGGGGTCGAGTAAACAAATTTTCCTAATCTTTCTGTTCAAGCGCCATCTAC,4.93
7,GATGATTGTTCTCCCAGCTGATGAATTCATCTCATCGAGTAAACAAATTTTCCTAATCTTTCTGTTCAAGCGCCATCTAC,0.393
8,GATGATTGTTCTCCCAGCTGATGAATTTGATCTTTCGAGTAAACAAATTTTCCTAATCTTTCTGTTCAAGCGCCATCTAC,0.319
9,GATGATTGTTCTCCCAGCTGATGAATTACACTCTTCGAGTAAACAAATTTTCCTAATCTTTCTGTTCAAGCGCCATCTAC,0.619
10,GATGATTGTTCTCCCAGCTGATGAATTTTATCCGTCGAGTAAACAAATTTTCCTAATCTTTCTGTTCAAGCGCCATCTAC,0.336
11,GATGATTGTTCTCCCAGCTGATGAATTCGTCCGGTCGAGTAAACAAATTTTCCTAATCTTTCTGTTCAAGCGCCATCTAC,0.264
12,GATGATTGTTCTCCCAGCTGATGAATTAGGGACATCGAGTAAACAAATTTTCCTAATCTTTCTGTTCAAGCGCCATCTAC,0.55
13,GATGATTGTTCTCCCAGCTGATGAATTGAAGAGATCGAGTAAACAAATTTTCCTAATCTTTCTGTTCAAGCGCCATCTAC,0.222
14,GATGATTGTTCTCCCAGCTGATGAATTTTGCGACTCGAGTAAACAAATTTTCCTAATCTTTCTGTTCAAGCGCCATCTAC,3.17
15,GATGATTGTTCTCCCAGCTGATGAATTAAATTCATCGAGTAAACAAATTTTCCTAATCTTTCTGTTCAAGCGCCATCTAC,0.395
16,GATGATTGTTCTCCCAGCTGATGAATTCTCATCCTCGAGTAAACAAATTTTCCTAATCTTTCTGTTCAAGCGCCATCTAC,0.287
17,GATGATTGTTCTCCCAGCTGATGAATTAGGTGTTTCGAGTAAACAAATTTTCCTAATCTTTCTGTTCAAGCGCCATCTAC,1.7
18,GATGATTGTTCTCCCAGCTGATGAATTAGCGCGATCGAGTAAACAAATTTTCCTAATCTTTCTGTTCAAGCGCCATCTAC,0.657
19,GATGATTGTTCTCCCAGCTGATGAATTCTGACCTTCGAGTAAACAAATTTTCCTAATCTTTCTGTTCAAGCGCCATCTAC,0.344
20,GATGATTGTTCTCCCAGCTGATGAATTGACGTCCTCGAGTAAACAAATTTTCCTAATCTTTCTGTTCAAGCGCCATCTAC,0.48
21,GATGATTGTTCTCCCAGCTGATGAATTGGCCTGGTCGAGTAAACAAATTTTCCTAATCTTTCTGTTCAAGCGCCATCTAC,0.366

row,Sequence,binding signal (RPM ratio (pull-down/input))
1,GATGATTGTTCTCCCAGCTGATGAATTGCATCTCTCGAGTAAACAAATTTTCCTAATCTTTCTGTTCAAGCGCCATCTAC,4.07
2,GATGATTGTTCTCCCAGCTGATGAATTAAAAATCTCGAGTAAACAAATTTTCCTAATCTTTCTGTTCAAGCGCCATCTAC,0.236
3,GATGATTGTTCTCCCAGCTGATGAATTCCTTTGCTCGAGTAAACAAATTTTCCTAATCTTTCTGTTCAAGCGCCATCTAC,0.42
4,GATGATTGTTCTCCCAGCTGATGAATTTTATCTTTCGAGTAAACAAATTTTCCTAATCTTTCTGTTCAAGCGCCATCTAC,0.517
5,GATGATTGTTCTCCCAGCTGATGAATTCCCAAAATCGAGTAAACAAATTTTCCTAATCTTTCTGTTCAAGCGCCATCTAC,0.172
6,GATGATTGTTCTCCCAGCTGATGAATTACCGTTGTCGAGTAAACAAATTTTCCTAATCTTTCTGTTCAAGCGCCATCTAC,0.697
7,GATGATTGTTCTCCCAGCTGATGAATTGAGATGGTCGAGTAAACAAATTTTCCTAATCTTTCTGTTCAAGCGCCATCTAC,0.493
8,GATGATTGTTCTCCCAGCTGATGAATTTGTCAAGTCGAGTAAACAAATTTTCCTAATCTTTCTGTTCAAGCGCCATCTAC,0.764
9,GATGATTGTTCTCCCAGCTGATGAATTAAGAATTTCGAGTAAACAAATTTTCCTAATCTTTCTGTTCAAGCGCCATCTAC,1.12
10,GATGATTGTTCTCCCAGCTGATGAATTGAAGGAATCGAGTAAACAAATTTTCCTAATCTTTCTGTTCAAGCGCCATCTAC,0.166
11,GATGATTGTTCTCCCAGCTGATGAATTCTATGCATCGAGTAAACAAATTTTCCTAATCTTTCTGTTCAAGCGCCATCTAC,1.21
12,GATGATTGTTCTCCCAGCTGATGAATTGGTGGCTTCGAGTAAACAAATTTTCCTAATCTTTCTGTTCAAGCGCCATCTAC,0.748
13,GATGATTGTTCTCCCAGCTGATGAATTTAAGAGTTCGAGTAAACAAATTTTCCTAATCTTTCTGTTCAAGCGCCATCTAC,0.415
14,GATGATTGTTCTCCCAGCTGATGAATTCCGGCAATCGAGTAAACAAATTTTCCTAATCTTTCTGTTCAAGCGCCATCTAC,1.76
15,GATGATTGTTCTCCCAGCTGATGAATTGATGCGGTCGAGTAAACAAATTTTCCTAATCTTTCTGTTCAAGCGCCATCTAC,3.14
16,GATGATTGTTCTCCCAGCTGATGAATTTAGCACATCGAGTAAACAAATTTTCCTAATCTTTCTGTTCAAGCGCCATCTAC,1.05
17,GATGATTGTTCTCCCAGCTGATGAATTAGCCCTGTCGAGTAAACAAATTTTCCTAATCTTTCTGTTCAAGCGCCATCTAC,0.264
18,GATGATTGTTCTCCCAGCTGATGAATTATCTTAGTCGAGTAAACAAATTTTCCTAATCTTTCTGTTCAAGCGCCATCTAC,0.342
19,GATGATTGTTCTCCCAGCTGATGAATTCAGTGAGTCGAGTAAACAAATTTTCCTAATCTTTCTGTTCAAGCGCCATCTAC,0.607
20,GATGATTGTTCTCCCAGCTGATGAATTGCACGTTTCGAGTAAACAAATTTTCCTAATCTTTCTGTTCAAGCGCCATCTAC,1.13
21,GATGATTGTTCTCCCAGCTGATGAATTAGGCTTGTCGAGTAAACAAATTTTCCTAATCTTTCTGTTCAAGCGCCATCTAC,2.5

row,Sequence,binding signal (RPM ratio (pull-down/input))
1,GATGATTGTTCTCCCAGCTGATGAATTACAGCTATCGAGTAAACAAATTTTCCTAATCTTTCTGTTCAAGCGCCATCTAC,0.716
2,GATGATTGTTCTCCCAGCTGATGAATTATGCCTATCGAGTAAACAAATTTTCCTAATCTTTCTGTTCAAGCGCCATCTAC,2.91
3,GATGATTGTTCTCCCAGCTGATGAATTGGTGCACTCGAGTAAACAAATTTTCCTAATCTTTCTGTTCAAGCGCCATCTAC,0.913
4,GATGATTGTTCTCCCAGCTGATGAATTTGCTTAGTCGAGTAAACAAATTTTCCTAATCTTTCTGTTCAAGCGCCATCTAC,4.79
5,GATGATTGTTCTCCCAGCTGATGAATTACTTCCATCGAGTAAACAAATTTTCCTAATCTTTCTGTTCAAGCGCCATCTAC,0.347
6,GATGATTGTTCTCCCAGCTGATGAATTCTGACGCTCGAGTAAACAAATTTTCCTAATCTTTCTGTTCAAGCGCCATCTAC,0.531
7,GATGATTGTTCTCCCAGCTGATGAATTTCGTGCGTCGAGTAAACAAATTTTCCTAATCTTTCTGTTCAAGCGCCATCTAC,0.73
8,GATGATTGTTCTCCCAGCTGATGAATTCCACCTCTCGAGTAAACAAATTTTCCTAATCTTTCTGTTCAAGCGCCATCTAC,0.486
9,GATGATTGTTCTCCCAGCTGATGAATTTTACTGTTCGAGTAAACAAATTTTCCTAATCTTTCTGTTCAAGCGCCATCTAC,0.655
10,GATGATTGTTCTCCCAGCTGATGAATTGTGGGAATCGAGTAAACAAATTTTCCTAATCTTTCTGTTCAAGCGCCATCTAC,0.433
11,GATGATTGTTCTCCCAGCTGATGAATTGGCACACTCGAGTAAACAAATTTTCCTAATCTTTCTGTTCAAGCGCCATCTAC,0.478
12,GATGATTGTTCTCCCAGCTGATGAATTAGGGCCCTCGAGTAAACAAATTTTCCTAATCTTTCTGTTCAAGCGCCATCTAC,0.432
13,GATGATTGTTCTCCCAGCTGATGAATTTACCGTCTCGAGTAAACAAATTTTCCTAATCTTTCTGTTCAAGCGCCATCTAC,0.547
14,GATGATTGTTCTCCCAGCTGATGAATTTGTCAATTCGAGTAAACAAATTTTCCTAATCTTTCTGTTCAAGCGCCATCTAC,1.59
15,GATGATTGTTCTCCCAGCTGATGAATTTAGACCATCGAGTAAACAAATTTTCCTAATCTTTCTGTTCAAGCGCCATCTAC,0.647
16,GATGATTGTTCTCCCAGCTGATGAATTGCTTGCGTCGAGTAAACAAATTTTCCTAATCTTTCTGTTCAAGCGCCATCTAC,1.39
17,GATGATTGTTCTCCCAGCTGATGAATTTTTGATTTCGAGTAAACAAATTTTCCTAATCTTTCTGTTCAAGCGCCATCTAC,0.408
18,GATGATTGTTCTCCCAGCTGATGAATTCTCTTGGTCGAGTAAACAAATTTTCCTAATCTTTCTGTTCAAGCGCCATCTAC,0.273
19,GATGATTGTTCTCCCAGCTGATGAATTGAGGCCGTCGAGTAAACAAATTTTCCTAATCTTTCTGTTCAAGCGCCATCTAC,0.905
20,GATGATTGTTCTCCCAGCTGATGAATTGTCCGCATCGAGTAAACAAATTTTCCTAATCTTTCTGTTCAAGCGCCATCTAC,0.901
21,GATGATTGTTCTCCCAGCTGATGAATTTGGACTGTCGAGTAAACAAATTTTCCTAATCTTTCTGTTCAAGCGCCATCTAC,0.82
